Experimental data: PubChem BioAssay AID686971 (National Center for Advancing Translational Sciences (NCATS), 2013)
The campaign covered roughly 360,000 compounds. About 7,500 (2.1%) were called active. This list was built around the results that the source calls inconclusive (neither active nor inactive); the mix of calls is not that of the screen. The call rests on the fitted dose curve; in most records, active means well fitted cell-killing curve with a large enough effect; inconclusive means small, poorly fitted or top-dose-only effect, or effect the other way, or another doubt; inactive means no such curve, though single readings can be large or run the other way. No potency is given beside an inconclusive call; the fits are too rough.

assay: qHTS for induction of synthetic lethality in tumor cells producing 2HG: qHTS for the HT-1080-IDH1KD cell line; conditions: HT-1080 IDH1 knockdown viability, ATP luminescence, 48 h; activity, negative = toxicity: at 46.1 µM (top of the series) unless noted;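 on activity, negative = toxicity: 0% = DMSO wells and -100% = cell-free medium wells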
In short: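 Assay cells: HT-1080 with IDH1 knockdown, 750 per well, RPMI/5% FBS. Exposure: 48 h at 37 °C following 2 h pre-incubation. Read: CellTiter-Glo luminescence; fitted concentration-response, curve class assigned.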
Potency means the concentration at half of the fitted maximal effect; tags describe the fitted curve by direction and shape.

SMILES	Potency	activity, negative = toxicity
COc1cccc(N2CCN(S(=O)(=O)c3ccc4c(c3)NC(=O)C(C)C(=O)N4)CC2)c1 (stereo not given)	inactive	
CC(C)(C)NC(=O)N1CCN(c2nc3ccc(Cl)cc3s2)CC1	inconclusive [cytotoxic, single point]	
CC(C)c1ccc(/C=C/c2[nH]c(=O)[nH]c(=O)c2[N+](=O)[O-])cc1	inconclusive [cytotoxic, single point]	
O=c1ccc2ccc(OCCOc3cccc(Cl)c3)cc2o1	inactive	
S=C(Nc1cccnc1)Nc1cccc2cnccc12	inactive	
Nc1ncnc2c1ncn2C1C=C(CO)C(O)C1O (stereo not given)	inconclusive [cytotoxic, partial curve, poor fit]	
Nc1nonc1-n1nnc(C(=O)N/N=C/c2cc(Br)ccc2O)c1CSC1=NCCS1	inconclusive [cytotoxic, full curve]	
CCOc1ccc(/C=N/NC(=O)c2c(-c3ccccc3)noc2C)cc1	inactive	
Cc1ccccc1-c1nc(NC(C)C)nc2cc(-c3ccccc3)sc12	inactive	
CC1(C)CC2CC(C)(CN2C(=O)COC(=O)CNC(=O)c2ccc(Cl)c(Cl)c2)C1 (stereo not given)		inconclusive: 1.35% [cytotoxic]
CC1=Nc2ccccc2/C1=C/c1c(C)[nH]c2ccccc12	inconclusive [cytotoxic, single point]	
CCc1ccc(Nc2nnc(SCC(=O)Nc3sccc3C(N)=O)s2)cc1	inconclusive [cytotoxic, single point]	
O=C(NCCCn1ccnc1)c1cn(-c2ccccc2)nc1-c1ccccc1	inconclusive [cytotoxic, single point]	
N#CC1=C2SCN(c3ccc(F)cc3)CN2C(=O)CC1c1cccc(F)c1 (stereo not given)	inactive	
O=C(NCCO)c1nc(C(=O)c2ccc(Cl)cc2)c2ccccc2n1	inactive	
Cc1cccc(NC(=S)NC2CC3CCCC(C2)N3CC(C)C)c1C (stereo not given)	inactive	
CCOC(=O)c1ccc(CC2S/C(=C(\C#N)C(C)=O)NC2=O)cc1 (stereo not given)	inconclusive [cytotoxic, single point]	
COc1ccc(S(=O)(=O)Nc2ccccc2C(F)(F)F)cc1	inconclusive [cytotoxic, single point]	
COc1ccccc1CNc1nc(NC(C)C)nc2ccsc12	inconclusive [cytotoxic, single point]	
O=C(NCc1ccco1)c1cnn2c(C(F)F)cc(-c3ccccc3)nc12	inactive	
COc1ccc(NC(=O)Cc2nc3ccccc3[nH]2)cc1	inconclusive [cytotoxic, single point]	
COc1cc([N+](=O)[O-])cc(/C=N/NC(=O)Cn2cncn2)c1O	inconclusive [cytotoxic, single point]	
COC(=O)c1ccc(CSc2ccccc2NC(=S)Nc2cccc(SC)c2)o1	inconclusive [cytotoxic, partial curve]	

SMILES	Potency	activity, negative = toxicity
COc1ccc(Nc2nnc(SCC(=O)/C=C3/N(C)c4ccccc4C3(C)C)s2)cc1	inconclusive [cytotoxic, partial curve]	
O=C(NCc1ccc(F)c(F)c1)c1cccc2c(-c3cccnc3)coc12	inconclusive [cytotoxic, single point]	
COc1cc(C(=O)NCc2nnc(SCC(=O)Nc3cc(C)on3)o2)cc(OC)c1OC	inconclusive [rising, partial curve]	
COc1ccc(-c2nn(-c3ccccc3)cc2C(=O)NC(=S)NNC(=O)c2ccncc2)cc1	inconclusive [cytotoxic, full curve]	
CCOC(=O)CC(=O)CSc1nc2ccccc2c(=O)n1-c1ccc(C(=O)NCCOC)cc1	inactive	
COc1ccc(-c2cc(C(=O)Nc3ccc(C(N)=O)cc3)c3ccccc3n2)cc1	inconclusive [cytotoxic, single point]	
O=C(c1ccccc1Cl)N1N=C(c2ccc(Br)cc2)CC1c1nc2ccccc2[nH]1 (stereo not given)	inconclusive [cytotoxic, single point]	
Cc1c(Cc2ccccc2)c(=O)oc2cc(OCC(=O)NCC(O)c3ccccc3)ccc12 (stereo not given)	inactive	
CSc1nc(N)c(NC(=O)c2ccc(Br)o2)c(=O)[nH]1	inactive	
CC(C)(C)c1ccc(C2C(C(=O)c3ccco3)=C(O)C(=O)N2CC2CCCO2)cc1 (stereo not given)	inactive	
C=C1C(=O)c2sccc2C(c2ccc(OC)c(OC)c2)C1COC(C)=O (stereo not given)	active: 2.31 µM	
COc1cc(NC(=O)CSc2nc(C3CC3)nc3ccccc23)cc(OC)c1	inconclusive [cytotoxic, partial curve]	
CCOC(=O)c1cccc(NC(=O)c2cc3sccc3n2C)c1	inconclusive [cytotoxic, single point]	
N#CCSc1nnc(COc2cccc3ccccc23)n1-c1cccc(Cl)c1	inconclusive [cytotoxic, partial curve]	
CCC(=O)OCCNc1cc(SCCC(=O)OC)c2nonc2c1[N+](=O)[O-]	inconclusive [cytotoxic, single point]	
O=C(/C=C/c1cccc([N+](=O)[O-])c1)NC(=S)Nc1cccc(NC(=O)c2ccccc2Cl)c1	inconclusive [cytotoxic, single point]	
Nc1nonc1-n1nnc(C(=O)N/N=C/c2ccc(OCc3ccccc3)cc2)c1CNc1ccccc1	inconclusive [cytotoxic, single point]	
CCOC(=O)Cc1csc(N/N=C/c2ccc(C(F)(F)F)cc2)n1	inactive	
O=C(Nc1ccc(F)cc1)c1cc2c(s1)CCCC2	inconclusive [cytotoxic, single point]	
CN1C(=O)C(C)(C)c2cc(S(=O)(=O)N3CCN(c4ccccc4F)CC3)ccc21	inactive	
S=c1[nH]nc(-c2ccc(Cl)cc2)n1Cc1ccccc1	inconclusive [cytotoxic, single point]	
O=C(Nc1ccn(CCCNCC(c2ccccc2)c2ccccc2)c(=O)n1)OCc1ccccc1	inconclusive [cytotoxic, single point]	
